Experimental data as given in the supplement of paper PMC3334620.
Whole data set: some 33,000 sequences, median “E-score (-0.5 to 0.5)” near -0.041, cut for the highest 2% near 0.37. The list shows a part of the results.

target: T1, Ecm22 (UniProt Q05958); experiment: PBM E-score (8-mer binding enrichment) (E-score (-0.5 to 0.5)); higher = stronger / more preferred TF binding; most listed sequences are background and not binding sites; conditions: protein concentration: 200 nM; construct: GST-full length
T1 sequence: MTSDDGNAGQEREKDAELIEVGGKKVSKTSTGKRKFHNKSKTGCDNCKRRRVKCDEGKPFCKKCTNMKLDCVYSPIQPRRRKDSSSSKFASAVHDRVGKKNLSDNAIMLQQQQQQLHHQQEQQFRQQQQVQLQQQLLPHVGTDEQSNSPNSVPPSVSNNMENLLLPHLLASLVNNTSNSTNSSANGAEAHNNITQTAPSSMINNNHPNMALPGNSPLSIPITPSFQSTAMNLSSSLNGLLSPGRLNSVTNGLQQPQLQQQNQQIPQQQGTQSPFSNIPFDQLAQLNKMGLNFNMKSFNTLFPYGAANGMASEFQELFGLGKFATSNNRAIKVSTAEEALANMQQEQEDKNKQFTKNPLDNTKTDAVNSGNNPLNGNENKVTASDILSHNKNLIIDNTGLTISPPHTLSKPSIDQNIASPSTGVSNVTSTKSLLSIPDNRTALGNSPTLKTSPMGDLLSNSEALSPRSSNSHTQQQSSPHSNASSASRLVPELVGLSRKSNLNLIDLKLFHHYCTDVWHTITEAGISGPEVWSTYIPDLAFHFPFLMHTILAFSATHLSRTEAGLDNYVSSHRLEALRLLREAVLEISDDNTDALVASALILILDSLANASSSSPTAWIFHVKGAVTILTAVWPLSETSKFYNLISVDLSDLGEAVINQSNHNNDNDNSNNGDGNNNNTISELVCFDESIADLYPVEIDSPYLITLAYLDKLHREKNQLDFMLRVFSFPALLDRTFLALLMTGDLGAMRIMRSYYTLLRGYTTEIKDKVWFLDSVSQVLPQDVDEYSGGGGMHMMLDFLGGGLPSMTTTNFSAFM
How it was run: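 GST-tagged yeast TFs (full-length or DNA-binding domain) were made by PURExpress in vitro transcription/translation and applied at about 100-200 nM to universal all-10-mer Agilent arrays. The arrays were made double-stranded by primer extension, on fresh or once-stripped slides. Bound protein was detected with fluorescent anti-GST, and scans were normalised with masliner. Each ungapped eight-base word, pooled with its reverse complement, received an E-score (modified Wilcoxon-Mann-Whitney statistic) from the Universal PBM Analysis Suite.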

Sequence	PBM E-score
CCGCATGC	-0.0538
AACTGGCA	-0.0403
CCCAGCAG	-0.0598
AACTCAAT	-0.0526
AACAATGG	-0.165
GCGAATAC	0.248
CAAGTTAA	-0.0911
TTCCCCAA	-0.193
ACTATACT	0.144
CACGCTTC	-0.173
CTGTTCAA	-0.144
AAATAGCT	-0.0997
GTGCGCTA	0.0764
CCCATTTC	-0.186
AAACGACT	0.437
CTATCATA	0.0505
CAGCATCA	-0.102
GCCATTTA	-0.111
TATTTTGA	-0.252
TCGTCCAA	-0.141
CAAAGGCA	-0.225
GCATGCCA	0.0106
ATGGGAAT	-0.088
AGGAAGTG	-0.0138
GTACGTGA	0.324

Sequence	PBM E-score
GCGTCTTA	-0.103
GGCTGAAC	-0.0835
ATGAAATG	-0.179
CCGACACC	0.0232
ACGACGTA	0.414
GCGCAACA	-0.144
CCGGTAAC	0.0414
AACTACCT	-0.177
ATACGGTG	0.388
ACGATGCC	0.211
ATCAACAA	0.173
ATAAGTTG	-0.0932
CTAAAGCC	-0.241
ACTTGACG	-0.0404
ACCCTCTG	-0.19
AAGGCCTA	-0.251
CTTTGCGA	0.192
CGTGTTAG	0.174
GCATGTTA	0.106
GAAAGGTC	-0.0495
CTAGTTTA	-0.185
CATTTACA	-0.145
CGCGCTTA	0.161
AAAGTGGA	-0.184
ACTCATAT	-0.109

Sequence	PBM E-score
AGGACGAG	-0.166
GGTTGATA	-0.0357
GAGAGGCC	-0.2
AATTGTGT	-0.00438
ATTCACGC	0.0499
ATGATGCC	-0.0956
GACTACGA	0.26
AACCGGGC	0.0502
GAAGCCCA	-0.156
GATGTACC	0.035
CCGGTGCA	-0.219
AGCTGTAA	-0.0964
CTCATATC	-0.212
CCTTTGAG	-0.152
CCGGCAGG	-0.111
TATGGTCA	0.0603
CCCTTCAG	-0.192
CACCGATA	0.0068
ATCTCAGA	0.00864
AGTTATGG	-0.11
GATAGACC	0.0888
CACCAGGC	-0.194
ATAAAAAC	0.0718
TATAAGGA	0.0687
TAAGTAGA	-0.0232

Sequence	PBM E-score
CACCTAAG	-0.0224
ATTGAGCC	-0.188
CCTCCTAA	-0.204
CAGTTTGC	0.0605
CATAAAGG	-0.167
CAGTCTCC	-0.157
CTCGGTTC	0.265
AGAGTGCT	0.0554
AAGTATTC	-0.0359
ATTTGGCC	-0.258
CAGCTCAA	-0.147
AACGCCTT	-0.139
ATCATAAT	0.131
CGGCGTTA	0.0563
GGATATAC	0.141
ACAGCTCA	-0.208
TACGTAGA	0.133
ATAGACAG	-0.0267
CATTCCGC	-0.249
AACTTGAA	-0.192
CTTTCTGA	-0.287
AAATCACC	-0.0791
GTCAAAGA	0.0722
GCACAGGA	-0.0683
AATCCGCT	-0.122

Sequence	PBM E-score
CCCTGCGA	-0.0943
CGTCGCAA	0.16
CGTCGGCA	0.0927
CGGCGTGA	-0.142
AGGGTGCA	-0.273
CCTACCAA	-0.184
ACAATGTA	-0.00071
TCACATAA	0.0336
ATCGTTAC	0.264
GCCCGAGC	-0.0385
ACCACGCT	0.0578
ATAGGTTG	-0.267
GAGAGTAA	-0.0985
CCCCCATA	-0.235
GCCCGTTA	-0.022
GCAATACA	0.0705
ATATGCTG	-0.24
CAAGATGC	-0.138
CATCAGGC	-0.231
GCTTCGTA	0.441
ACATCGCA	0.0391
CAAGTATC	-0.0723
ATAAAATC	0.0778
ACGAGGTG	0.397
AGTCACTA	0.0548

Sequence	PBM E-score
AATTAACT	0.0866
AAGCGTAT	0.235
AAGCGCTA	-0.0259
CGCGGGCA	0.0325
CCTCGCCG	-0.151
CAGCCTAC	-0.0944
CTCTACGC	0.00503
ACGGGCGC	0.112
CTTACGAC	0.394
CGCATTAG	-0.122
AAAGTCAG	-0.0469
CGTGCGAG	0.246
AAAACAAG	-0.0792
AGCACGTA	0.109
GCCCCTAA	-0.276
CAGTGTGG	-0.311
CAAACTGC	-0.0122
GATACGCC	0.162
ACGCGTAC	0.265
CAGCGCAA	-0.0484
AAGACATG	-0.112
GGCCCAAA	0.0966
ACTGGACC	-0.0165
GAATGTGC	-0.0225
ATCATGAA	-0.0308

Sequence	PBM E-score
CGTAAGCA	0.118
CAGTCCAG	-0.328
AGATAAAC	0.156
CGGGCCAG	-0.0266
CTTGGGGC	-0.13
CCATGTGC	-0.0904
AATGCAGT	-0.0129
ACTGGATG	-0.18
AGCCAGGG	-0.109
AGCCTCTC	-0.117
CCACACCG	-0.0803
CAGCAGCG	0.00537
CCTGCGAC	-0.111
ATGAGGGA	-0.0667
AGATGTTG	-0.164
AGTTTAAA	0.0639
GCAGAAGC	0.0949
GACGCTCA	-0.0816
AGGTCGGG	-0.108
AGCTAGCA	-0.127
ACAGTTAT	-0.183
GACCCCAA	-0.193
